Source: article PMC3791423, “A Key Hydrophobic Patch Identified in an AAA^+ Protein Essential for Its In Trans Inhibitory Regulation” (Journal of Molecular Biology, 2013)

B1: PspF_([…]) F60C (domain or fragment)
chain: not shown
notes: E. coli PspF, […], site-directed mutant of pPB1
B2: PspF_([…]) G58C (domain or fragment)
chain: not shown
notes: as for B1
B3: PspF_([…]) H50C (domain or fragment)
chain: not shown
notes: as for B1
B4: PspF_([…]) I61C (domain or fragment)
chain: not shown
notes: as for B1
B5: PspF_([…]) L52C (domain or fragment)
chain: not shown
notes: as for B1
B6: PspF_([…]) P59C (domain or fragment)
chain: not shown
notes: as for B1
B7: PspF_([…]) Q57C (domain or fragment)
chain: not shown
notes: as for B1
B8: PspF_([…]) R55C (domain or fragment)
chain: not shown
notes: as for B1
B9: PspF_([…]) S53C (domain or fragment)
chain: not shown
notes: as for B1
B10: PspF_([…]) S54C (domain or fragment)
chain: not shown
notes: as for B1
B11: PspF_([…]) S62C (domain or fragment)
chain: not shown
notes: as for B1
B12: PspF_([…]) W56C (domain or fragment)
chain: not shown
notes: as for B1
B13: PspF_([…]) Y51C (domain or fragment)
chain: not shown
notes: as for B1

Target: the molecule itself
Assay: SEC; Yarra Sec-S3000 column, 50 μM injection concentration (20 μM also run), no nucleotide, no reducing agent, 4 °C (legend; column oven 8 °C in the methods), 20 mM Tris–HCl pH 8.0, 50 mM NaCl, 15 mM MgCl2; apparent oligomers

B1 and B3 cannot be ordered by “stoichiometry N” value: greater than 20 mer for the first, greater than 20 mer for the second.

B4 and B6 cannot be ordered by “stoichiometry N” value: greater than 20 mer for the first, greater than 20 mer for the second.

B7 and B9 cannot be ordered by “stoichiometry N” value: greater than 20 mer for the first, greater than 20 mer for the second.

B10 and B11 cannot be ordered by “stoichiometry N” value: greater than 20 mer for the first, greater than 15 mer for the second.

B13 was tested, and the “stoichiometry N” value was greater than 15 mer.

Point of comparison: B5, “stoichiometry N” value 6. Against it:
- B2 — the same, 6
- B8 — lower, 2
- B12 — the same, 6
